Our source for the cAMP reporter score and surface expression score values is the GPR68 mutational scans of Howard et al. (2025).

Scores whose standard error is large were omitted. The source holds two more conditions with little spread; they are left out. In variant names, del marks residues removed and ins residues inserted between the two positions. For some assays here: How much ogerin was present is not stated here.

First the molecules themselves.
B1: GPR68, Q15743 (parent)
chain: MGNITADNSSMSCTIDHTIHQTLAPVVYVTVLVVGFPANCLSLYFGYLQIKARNELGVYLCNLTVADLFYICSLPFWLQYVLQHDNWSHGDLSCQVCGILLYENIYISVGFLCCISVDRYLAVAHPFRFHQFRTLKAAVGVSVVIWAKELLTSIYFLMHEEVIEDENQHRVCFEHYPIQAWQRAINYYRFLVGFLFPICLLLASYQGILRAVRRSHGTQKSRKDQIQRLVLSTVVIFLACFLPYHVLLLVRSVWEASCDFAKGVFNAYHFSLLLTSFNCVADPVLYCFVSETTHRDLARLRGACLAFLTCSRTGRAREAYPLGAPEASGKSGAQGEEPELLTKLHPAFQTPNSPGSGGFPTGRLA

Variants of B1 are the subject of data set [1]. Briefly: cAMP reporter score (Enrich2 score, wild type = 0); higher = more signal; HEK293T, FACS bins.
In data set [2] the parent is B1. Nature of the data set: surface expression score (Enrich2 score, wild type = 0); higher = more signal; HEK293T, FACS bins.

In the case of C258_F260del, the cAMP reporter score is -1.49 in data set [1] (pH 5.5); -0.91 in data set [1] (pH 6); -1.59 in data set [1] (pH 6, modulator: ogerin); -1.17 in data set [1] (pH 6.5, modulator: ogerin). In addition, in data set [2], the surface expression score was -2.03.
Turning to C258del, the cAMP reporter score was -1.2 in data set [1] (pH 5.5); -1.55 in data set [1] (pH 6); -1.34 in data set [1] (pH 6, modulator: ogerin); -1.46 in data set [1] (pH 6.5, modulator: ogerin). The surface expression score in data set [2] is -1.25.
With V253_W254insG, the cAMP reporter score in data set [1] (pH 5.5) is -0.406; in data set [1] (pH 6) it was 1.22; in data set [1] (pH 6, modulator: ogerin), -1.52. Moreover, in data set [2], the surface expression score amounted to 2.38.
As for E255_A256insG, the cAMP reporter score was -0.695 in data set [1] (pH 5.5); -0.731 in data set [1] (pH 6); -0.894 in data set [1] (pH 6, modulator: ogerin); -1.16 in data set [1] (pH 6.5, modulator: ogerin). Further, the surface expression score in data set [2] amounted to 1.68.
Regarding MGNITADNSSMSCTIDHTIHQTLAPVVYVTVLVVGFPANCLSLYFGYLQIKARNELGVYLCNLTVADLFYICSLPFWLQYVLQHDNWSHGDLSCQVCGILLYENIYISVGFLCCISVDRYLAVAHPFRFHQFRTLKAAVGVSVVIWAKELLTSIYFLMHEEVIEDENQHRVCFEHYPIQAWQRAINYYRFLVGFLFPICLLLASYQGILRAVRRSHGTQKSRKDQIQRLVLSTVVIFLACFLPYHVLLLVRSVWEASCCFAKGVFNAYHFSLLLTSFNCVADPVLYCFVSETTHRDLARLRGACLAFLTCSRTGRAREAYPLGAPEASGKSGAQGEEPELLTKLHPAFQTPNSPGSGGFPTGRLA [D259C], the cAMP reporter score in data set [1] (pH 5.5) is -0.033; in data set [1] (pH 6), -0.64; in data set [1] (pH 6, modulator: ogerin) it was -1.32; in data set [1] (pH 6.5, modulator: ogerin), -1.72. Further, the surface expression score in data set [2] was -2.06.
For MGNITADNSSMSCTIDHTIHQTLAPVVYVTVLVVGFPANCLSLYFGYLQIKARNELGVYLCNLTVADLFYICSLPFWLQYVLQHDNWSHGDLSCQVCGILLYENIYISVGFLCCISVDRYLAVAHPFRFHQFRTLKAAVGVSVVIWAKELLTSIYFLMHEEVIEDENQHRVCFEHYPIQAWQRAINYYRFLVGFLFPICLLLASYQGILRAVRRSHGTQKSRKDQIQRLVLSTVVIFLACFLPYHVLLLVRSVWEASCAFAKGVFNAYHFSLLLTSFNCVADPVLYCFVSETTHRDLARLRGACLAFLTCSRTGRAREAYPLGAPEASGKSGAQGEEPELLTKLHPAFQTPNSPGSGGFPTGRLA [D259A], in that order: 1.92, 1.67, 1.43, 0.233 and -0.617.
In the same order, the values of A256_S257insGSG are -0.645, -0.592, -0.382, -0.645 and 1.21.
As to A256del, the cAMP reporter score in data set [1] (pH 5.5) was -0.409; in data set [1] (pH 6) it was -1.26; in data set [1] (pH 6, modulator: ogerin), -2.13. Moreover, the surface expression score in data set [2] was -0.719.
